Assay results from PubChem BioAssay AID463173 (ICCB-Longwood Screening Facility, Harvard Medical School, 2010).
The campaign covered roughly 52,000 compounds. About 1,700 (3.3%) were called active. No stated cut-off is given here; in the data, active means survival mostly below about 52% (no sharp cut-off); inactive means mostly above about 56%. The list shows a part of the results.

The compounds below were run on Wild type (assay: growth inhibition of S. aureus wild type versus tarO mutant, primary screen, teichoic acid synthesis inhibitors, RN4220, OD600 (AID 463173)). Details: S. aureus RN4220 wild type/DeltatarO growth, OD600, 18 h, stronger effect = lower value, screened at 18.75 µg/mL (by protocol).
CCCNC(=O)CSc1c(CCC)cnc2c1c(=O)n(C)c(=O)n2C was tested, and the survival was inactive: 98%.
With O=C(NCCc1csc(-c2cccnc2)n1)c1ccccc1 the survival was inactive: 98%.
CCOC(=O)c1cnc(N2CCN(c3cccc(C)c3C)CC2)c2ccccc12 was tested, and the survival was inactive: 85%.
With CC(=O)Nc1ccc(NC(=O)Cc2ccccc2)cc1 the survival was inactive: 100%.
For O=C(CN1C(=O)C2(SCC(=O)N2c2cccc(F)c2)c2ccccc21)NCCc1ccccc1 (stereo not drawn), the survival was inactive: 86%.
For CCN(CC)C(=O)c1cc2c(n(-c3ccc(OC)cc3)c1=O)CC(C)(C)CC2=O, the survival was inactive: 110%.
In the case of Cc1nnc2c(N3CCN(c4ccc(F)cc4)CC3)nc3ccc(C(=O)c4ccccc4)cc3n12, the survival is reported as inactive: 148%.
With Cc1ccccc1C(=O)OCc1cc(=O)n2nc(C3CCCCC3)sc2n1 the survival was inactive: 51%.
For CC1CCCCN1CCCNC(=O)CN1C(=O)CSc2ccc(S(=O)(=O)N3CCOCC3)cc21 (stereo not drawn), the survival was inactive: 73%.
CCOC(=O)c1cc(-c2ccc(OC)c(S(=O)(=O)NCc3ccccc3Cl)c2)on1 was tested, and the survival was inactive: 79%.
COc1ccc(OC)c(NC(=O)Cn2ccn(-c3ccc(OC)c(OC)c3)c(=O)c2=O)c1 was tested, and the survival was inactive: 84%.
For CCc1ccc(NC(=O)Nc2ccccc2OCc2cc(=O)n3ccccc3n2)cc1, the survival was inactive: 65%.
In the case of O=C(N1CCOCC1)N1CCC(c2ccc(F)cc2)CC1, the survival is reported as inactive: 110%.
In the case of COc1ccc(-c2oc3ncn4nc(COc5ccc(C)cc5)nc4c3c2-c2ccc(OC)cc2)cc1, the survival is reported as inactive: 97%.
With COc1ccc(CNC(=O)c2ccc(NC(=O)N3CCSc4ncccc43)cc2)cc1OC the survival was inactive: 60%.
In the case of CCOC(=O)c1c(NC(=O)CCCOc2ccc(Cl)cc2)sc2c1CCC2, the survival is reported as inactive: 20%.
For COc1ccc(OC)c(-c2noc(N3CCN(c4ccc(C(C)=O)cc4)CC3)n2)c1, the survival was inactive: 159%.
O=C(CN1C(=O)c2cccc3cccc1c23)Nc1ccccc1 was tested, and the survival was inactive: 115%.
For CCOC(=O)Cn1c(=O)oc2cc(S(=O)(=O)N3CCN(c4ccccc4OC)CC3)ccc21, the survival was inactive: 81%.
In the case of O=C(CN1CCC(N2CCCCC2)CC1)Nc1ccc2c(c1)OCCO2, the survival is reported as inactive: 88%.
In the case of O=C(NCCc1csc2nc(-c3ccccc3F)nn12)c1ccccc1C(F)(F)F, the survival is reported as inactive: 99%.
With COc1cccc(CN(C(=O)c2ccc(C(C)(C)C)cc2)C2CCS(=O)(=O)C2)c1 (stereo not drawn) the survival was inactive: 83%.
With OC1(c2ccccc2)CCN(Cc2ccccc2)CC1 the survival was inactive: 113%.
In the case of Cc1cc(=O)[nH]c(SCc2nnc(-c3ccccc3)o2)n1, the survival is reported as inactive: 108%.
With CCOc1ccc(-c2nnc(SCC(=O)Nc3cc(F)ccc3F)o2)cc1 the survival was inactive: 65%.
COCCCNC(=O)c1ccc(Cn2c(=O)c3ccccc3n(Cc3ccccc3C)c2=O)cc1 was tested, and the survival was inactive: 130%.
COc1cccc2c1Oc1nc(-c3ccccc3)nc(SCC(=O)Nc3ccccc3)c1C2 was tested, and the survival was inactive: 90%.
In the case of Cc1ccccc1NC(=O)c1c(C)oc2ccc(O)c(CN3CCC(C)CC3)c12, the survival is reported as inactive: 88%.
For CCCOc1ccc(C(=O)Nc2ccc3nn(-c4ccc(OC)c(Cl)c4)nc3c2)cc1, the survival was inactive: 145%.
With COc1ccc(NC(=O)c2cnn(-c3ccc(F)cc3F)c2C2CCN(C(=O)OC(C)(C)C)CC2)cc1Cl the survival was inactive: 71%.
COc1ccc(CCNC(=O)c2ccc3nc(Cc4ccccc4)oc3c2)cc1OC was tested, and the survival was inactive: 124%.
In the case of Nc1nonc1-c1nc2ccccc2n1Cc1c(Cl)cccc1Cl, the survival is reported as inactive: 80%.
COc1ccc(N(CC(=O)NCCc2ccccc2)S(=O)(=O)c2ccc(OC)c(OC)c2)cc1 was tested, and the survival was inactive: 83%.
For O=C(C1CCCN(S(=O)(=O)c2cccc3nonc23)C1)N1CCN(c2ccccc2Cl)CC1 (stereo not drawn), the survival was inactive: 82%.
In the case of COc1ccc(CCn2c(=O)[nH]c3cc(C(=O)N4CCN(c5ccccc5)CC4)ccc3c2=O)cc1OC, the survival is reported as inactive: 102%.
With Cc1ccc(NC(=O)/C(C#N)=C/c2cc(C)n(-c3ccc(Br)cc3)c2C)cc1C the survival was inactive: 84%.
For CCOc1ccccc1NC(=O)n1ncc2cc(Cl)ccc21, the survival was inactive: 106%.
For C=CCNC(=O)CN1CCC(n2nnc3cc(C(F)(F)F)ccc32)CC1, the survival was inactive: 95%.
With Cc1ccc(CCNC(=O)c2ccc(CS(=O)(=O)c3ccc(Cl)cc3)o2)cc1 the survival was inactive: 135%.
With COCCNC(=O)CCCN1C(=O)CCn2nc(-c3cccn3C)cc21 the survival was inactive: 68%.
CC1=C(c2ccc(C)cc2)S(=O)(=O)N(Cc2ccc(C(=O)Nc3ccccc3C)cc2)C1=O was tested, and the survival was inactive: 78%.
Cc1cc2ccccc2n1CCNC(=O)c1ccc(F)cc1 was tested, and the survival was inactive: 79%.
With CCN1C(=O)C2(c3ccccc31)c1c(oc3ccc(C)cc3c1=O)C(=O)N2CCCOC(C)C (stereo not drawn) the survival was inactive: 84%.
Cc1cc(O)c(C(c2ccc(Cl)cc2)N2CCN(c3ccccc3)CC2)c(=O)n1Cc1ccco1 (stereo not drawn) was tested, and the survival was inactive: 92%.
Fc1ccc(-c2cn3cc(Cc4ccccc4Cl)sc3n2)cc1 was tested, and the survival was inactive: 53%.
In the case of COc1ccc(NC(=O)Cn2c(=O)oc3cc(S(=O)(=O)N4CCCCC4C)ccc32)cc1 (stereo not drawn), the survival is reported as inactive: 60%.
For COC(=O)c1ccccc1NC(=O)CCCN1C(=O)C(c2ccccc2)Oc2cccnc21 (stereo not drawn), the survival was inactive: 84%.
For O=C(c1ccccc1F)N1CCC(c2nc3c(nnn3Cc3cccc(F)c3)c(=O)[nH]2)CC1, the survival was inactive: 83%.
For Cc1oc(-c2ccc(C(=O)NC(C)c3ccccc3)cc2)nc1CS(=O)(=O)c1ccccc1 (stereo not drawn), the survival was inactive: 80%.
O=C1/C(=C/C2=Cc3ccccc3OC2)SC(=S)N1C1CCS(=O)(=O)C1 (stereo not drawn) was tested, and the survival was inactive: 100%.
CC(=O)Nc1ccc(NS(=O)(=O)c2cc(Br)cc3c2N(C(=O)C2CC2)CC3)cc1 was tested, and the survival was inactive: 73%.
For COc1cc(OC)c(NC(=O)c2cc(C(C)=O)n3ccccc23)cc1Cl, the survival was inactive: 100%.
In the case of COc1ccc(OCC(=O)N(Cc2cccc(OC)c2)C2CCS(=O)(=O)C2)cc1 (stereo not drawn), the survival is reported as inactive: 83%.
For Clc1cccc(Cl)c1COc1ccccn1, the survival was inactive: 110%.
For Brc1ccc(-c2noc(-c3ccccc3)n2)o1, the survival was inactive: 88%.
In the case of COCCNC(=O)CCCn1c(=O)[nH]c2ccsc2c1=O, the survival is reported as inactive: 63%.
For COc1ccc(C)cc1NS(=O)(=O)c1c(C)nc2sc(C)cn2c1=O, the survival was inactive: 110%.
In the case of CCOc1ccccc1NC(=O)CSc1ccc2nnc(CCNS(=O)(=O)c3ccccc3)n2n1, the survival is reported as inactive: 91%.
For O=C(O)C1=C(C(=O)Nc2cccc(C(F)(F)F)c2)CCCC1, the survival was inactive: 115%.
With O=C(Nc1ccccn1)c1cccs1 the survival was inactive: 114%.
With COc1ccccc1NC(=O)C1=C(C)Nc2nc(SCC(=O)c3ccc(C)cc3)nn2C1c1ccccc1C (stereo not drawn) the survival was inactive: 83%.
For COc1ccc(NC(=O)c2sc3nc(C)c(C(=O)Nc4ccc(C)cc4C)c(-c4ccccc4Cl)c3c2N)cc1, the survival was inactive: 88%.
In the case of Cc1nn(Cc2noc(C(=O)NCc3cccc(F)c3)n2)c(C)c1Br, the survival is reported as inactive: 74%.
For CSCCC(NS(=O)(=O)c1ccc2c(c1)oc(=O)n2C)C(=O)NCc1ccc(F)cc1 (stereo not drawn), the survival was inactive: 89%.
In the case of COc1ccc(-n2cc(C(=O)N(C)c3cc(C)ccc3OC)c3ccccc3c2=O)cc1, the survival is reported as inactive: 114%.
In the case of Cc1ccc(Cl)cc1N(C)C(=O)c1noc2c1CCCCC2, the survival is reported as inactive: 65%.
CN(C)CCNC(=O)CCCn1c(=O)c2cccn2c2ccccc21 was tested, and the survival was inactive: 91%.
With CCOc1ccc(NS(=O)(=O)c2ccc3[nH]cc(C(=O)NCCOC)c(=O)c3c2)cc1 the survival was inactive: 81%.
For CN(C)CCN(Cc1ccccc1)S(=O)(=O)c1ccc(-c2cc(C(F)(F)F)on2)s1, the survival was inactive: 72%.
With CC1=C(C(=O)Nc2cccnc2)C(c2ccccc2)n2nc(SCc3ccccc3)nc2N1 (stereo not drawn) the survival was inactive: 80%.
Cc1ccc(Cn2nnc3sc4c(c3c2=O)CCC(C)C4)cc1 (stereo not drawn) was tested, and the survival was inactive: 60%.
In the case of CCC(=O)N1CCc2cc(CNS(=O)(=O)c3c(C)cc(C)cc3C)ccc21, the survival is reported as inactive: 71%.
O=C(Cn1nc(-c2ccccc2)c2cnc3ccccc3c21)Nc1ccccc1 was tested, and the survival was inactive: 64%.
O=C(/C=C/c1ccccc1)C1=C(O)C(=O)N(CCO)C1c1ccc2c(c1)OCO2 (stereo not drawn) was tested, and the survival was inactive: 93%.
In the case of Cc1ccc(C)c(NC(=O)CN2C(=O)C3(SCC(=O)N3c3ccc(C)c(C)c3)c3ccccc32)c1 (stereo not drawn), the survival is reported as inactive: 99%.
For CCCCOc1ccc(C(=O)Nc2ccc(S(=O)(=O)Nc3nc(C)cc(C)n3)cc2)cc1, the survival was inactive: 77%.
With CC1CCc2nc3ncn(Cc4ccc(Cl)cc4)c(=O)c3cc2C1 (stereo not drawn) the survival was inactive: 80%.
With Cc1ccc2nc(-c3ccc(Cl)c(NC(=O)c4ccc5c(c4)OCCO5)c3)oc2c1 the survival was inactive: 85%.
For Cc1nnc(NCc2ccc(Cl)cc2)c2c1nnn2Cc1ccc(F)cc1, the survival was inactive: 85%.
For NC(=S)N/N=C/c1ccc(Sc2cccc3cccnc23)o1, the survival was inactive: 115%.
In the case of COC(=O)c1ccccc1NC(=O)c1cc(-c2ccc(Cl)cc2)on1, the survival is reported as inactive: 71%.
In the case of CCc1ccc2ncc(S(=O)(=O)c3ccc(Cl)cc3)c(N3CCN(CC)CC3)c2c1, the survival is reported as inactive: 79%.
For Cc1nc2ccccc2n1CCc1nc2c3ccccc3nc(SCC(=O)Nc3cccc(C(F)(F)F)c3)n2n1, the survival was inactive: 80%.
With Cc1cc(C)cc(-n2c(SCC(=O)N3CCCC3)nc3c([nH]c4ccccc43)c2=O)c1 the survival was inactive: 69%.
In the case of Cc1cc(C)nc(NS(=O)(=O)c2ccc(NC(=O)c3ccccc3O)cc2)n1, the survival is reported as inactive: 127%.
In the case of COc1ccc(Br)cc1Cn1nnc(C(=O)Nc2ccc(C)cc2C)c1N, the survival is reported as inactive: 72%.
In the case of CCCCOc1ccc(C(=O)N2CC(=O)Nc3ccc(Br)cc3C2c2ccc(F)cc2)cc1 (stereo not drawn), the survival is reported as inactive: 77%.
COc1ccc2c(Sc3ccccc3)c(C(=O)NCC(C)c3ccccc3)[nH]c2c1 (stereo not drawn) was tested, and the survival was inactive: 88%.
